Assay results reported in the supplement of paper PMC10126150.
Values marked as one replicate rest on one cluster of the flow cell; about a third of the high ones do not repeat.

Test system: ATP
Experiment: switch fluorescence ratio, 500 uM ATP over buffer (Cy3 cluster intensity, sum of 5 cycles each) (fold (ratio)); higher = stronger signal-on switching upon ATP binding; sequences stand for … in TCGTCGGCAGCGTCAGATGTGTATAAGAGACAGTTTTTTTTTTTTTTTTTTTTTTTTT…TC
Conditions: aptamer strand: ATP DNA aptamer (quencher-CACCTGGGGGAGTATTGCGGAGGAAGG + anchor), 100 nM annealed; ATP concentration: 500 uM; one replicate
Outline: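 Switching-strand clusters labelled with Cy3 on a modified Illumina MiSeq flow-cell were annealed to 100 nM quencher-labelled ATP aptamer, imaged in selection buffer, and re-imaged after 15 min with 500 uM ATP at 22 °C. This was done over five cycles with NaOH stripping and re-annealing in between. The fluorescence ratio is summed target-cycle over summed buffer-cycle Cy3 intensity per cluster, averaged per switch-domain sequence, excluding clusters outside 100-1000 RFU.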
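Note: ATP exposure 15 min at 22 °C before imaging.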

Sequence | switch fluorescence ratio
AGACTCAGCT | 1.04
TGCGTGCTGA | 0.963
AGACTATTAC | 1.11
TCATCAGTTG | 0.983
GAAATTGGTA | 0.977
ATGGGCTTTA | 0.978
AACCCCGAGC | 1.4
TTAATCTCCG | 1.08
ATAGACACCT | 1.2
GGGGAGCCTG | 0.959
GGTTCACCCG | 0.986
ACAGCGC | 0.968
AGCCCGGCTC | 0.977
GATGGGTTGT | 0.994
TTATAGTCCA | 1.01
ACGTCGTGGA | 1.05
GCGTGAATTT | 1.02
CCAGCCCACA | 1.01
GGTCAAAGAT | 1.02
AGCAAATCCA | 1.06
TTACGATGTT | 0.999
GTCCGCTGGG | 1.3
CGGTTGGTA | 0.982

Sequence | switch fluorescence ratio
TATCCCCTAT | 1.02
GTTACTT | 1.05
TCTTTGAGAT | 0.959
GTTTAGAGGG | 1.01
ATATTCGTAT | 0.992
TGCCTTAAAC | 1.14
CACACATTTT | 0.971
GTGCCTCTT | 1.01
AAGACCTGTA | 1.11
GGCTGACTCG | 1.04
GTGGGGGACC | 1.03
TAATGGAGTC | 0.987
CGAGACACCT | 1.2
ATAGAATGTT | 1.02
GAGGCCGC | 1.07
GAGTGGCCTA | 1.04
ATATTTTCGT | 0.974
GGGGGGCCAC | 1
TGGGGTCTTT | 0.993
TTCGTTGAAG | 1.02
GTGGGAGTGT | 0.965
CGGCGCGAA | 1.12
GACCATACTC | 1.7

Sequence | switch fluorescence ratio
GCGCTAATCT | 1.17
CACAGTTTTA | 1.03
AGTGGGTCGC | 0.981
GCAAGAAACT | 1.03
CACTACGTTT | 1.01
TTAGCCCTTC | 1.04
AGGATCTTCT | 1.02
CAGTTGACCG | 1.05
TATTGCAGGC | 1.04
TAAGTAATAT | 2.3
GTGAGGCCGG | 1.05
GATACACCGG | 1.11
AACATTACAG | 1.18
TATGAATATG | 1
GGGGCGAACT | 1.01
TGGTTTGACG | 1.01
GAGGAAATGT | 0.952
TAGCCTTATT | 1.72
GCGTCTGTGT | 0.996
TCGTGCGTTC | 1.03
CACAATTTTG | 1.01
CATTGGACCG | 1.09
ATTATAATT | 0.971

Sequence | switch fluorescence ratio
CTTCTATGTA | 1.03
ATCACGTGAC | 1.2
GAATTGTAGA | 0.975
TAATTTGCTG | 0.958
CGCATAGATT | 1.03
ACATGTGGTG | 0.997
GTTTTCGGAA | 1.06
TAGGTGATCA | 0.971
CTAGTTATGT | 1
AGGGGATCTG | 0.967
AAGGGAAAG | 1.02
ATTGTGTTGT | 0.976
GAAAACCTTA | 1.01
GGATTTAAGC | 0.95
TGGTCAGCTG | 0.935
GTGCTGGCGG | 1.01
ACCTACCAGG | 1.11
TACCCGGGGG | 1.04
CGTTACTGTG | 0.97
AACCGGCTAC | 1.68
AACAGAACGT | 0.765
TAGGATTTGC | 0.987
ACATCACGGT | 1.48

Sequence | switch fluorescence ratio
ATGTGACACA | 1.04
AATTGAACCT | 2.14
AGAGCTGTTT | 0.992
GCTCTCAGAG | 1
GGAAGGGCAC | 1.02
CAGCTGGTGC | 1.06
CATGGCCCAA | 1.01
CTGATGACA | 0.969
CAGAGGCG | 1.02
TACGGGATG | 1.06
CCACGAAGCT | 1.05
ACTGCTTGGC | 1.03
TAGAGGTGCT | 1.02
CTAGTAACAT | 1.03
CGCAGGTCGA | 1.09
GACTCTAATG | 0.998
CTGGAAGTGT | 0.947
GGGGTCTGAC | 1.01
TCTAGGGATA | 1
AGGTAGATGT | 0.969
AGAGCGAGAA | 1.04
TTCAGTATCC | 1.02
AGACAATACG | 1.13

Sequence | switch fluorescence ratio
GCAACCTTTC | 2.93
TAAATCTTAA | 0.976
GCCTTAGTTC | 0.965
TATGAGTCTC | 0.984
ACAATCATAC | 1.11
AGTATCGGCG | 0.918
ACGAGCTACT | 2.09
GAGTGGAGCT | 0.966
AGGTCAGCCA | 1.01
CCTGTTGGGC | 1.08
ATCTTACGG | 1.01
AACGCAGTAA | 1.45
TCGTTAGTGT | 1
AACACAGGCA | 1.01
GAGTTGTAGC | 1.01
GCCTTTGCGC | 1
TAATAAAAAT | 0.983
GAATCCAAAG | 1.02
TGTCCAATGC | 1.68
AAGATCAAAT | 1.03
CTTAGCTACC | 1.19
GAGTTCATT | 1
CCTGAACTTC | 1.04

Sequence | switch fluorescence ratio
TATATTAGA | 0.985
CTCGGCTTTA | 1.3
AGCTATTATT | 0.985
AGTTGTCATG | 0.978
GCCCGTTCTA | 0.977
ATAGGTAGCC | 0.988
TGTAGACCCA | 0.955
GTGTTCCTAG | 0.989
GTATATGTG | 0.999
AGTCGCAGCG | 0.957
CCAATTAGT | 0.983
CCAAAACGCC | 1.06
ACTACCGGGG | 1.6
TCTGGTAAGA | 0.971
ACCGGGGGG | 0.979
ATCAGTTGCA | 1.02
ACCGTACAGG | 1.16
CACTCTGCTC | 2.04
CGATAGTCAG | 0.978
CATGTGGTCG | 0.989
